The whole screen tested about 310,000 compounds, of which about 2,200 (0.71%) showed an effect of 50% or more. Effects have a minus sign here. The list shows a part of the results.
Molecular target: human ether-à-go-go-related gene (hERG) potassium channel (human, UniProt Q12809)
Test: primary screen, population patch clamp on CHO cells stably expressing hERG

human ether-à-go-go-related gene (hERG) potassium channel, sequence (Q12809 whole entry, looked up): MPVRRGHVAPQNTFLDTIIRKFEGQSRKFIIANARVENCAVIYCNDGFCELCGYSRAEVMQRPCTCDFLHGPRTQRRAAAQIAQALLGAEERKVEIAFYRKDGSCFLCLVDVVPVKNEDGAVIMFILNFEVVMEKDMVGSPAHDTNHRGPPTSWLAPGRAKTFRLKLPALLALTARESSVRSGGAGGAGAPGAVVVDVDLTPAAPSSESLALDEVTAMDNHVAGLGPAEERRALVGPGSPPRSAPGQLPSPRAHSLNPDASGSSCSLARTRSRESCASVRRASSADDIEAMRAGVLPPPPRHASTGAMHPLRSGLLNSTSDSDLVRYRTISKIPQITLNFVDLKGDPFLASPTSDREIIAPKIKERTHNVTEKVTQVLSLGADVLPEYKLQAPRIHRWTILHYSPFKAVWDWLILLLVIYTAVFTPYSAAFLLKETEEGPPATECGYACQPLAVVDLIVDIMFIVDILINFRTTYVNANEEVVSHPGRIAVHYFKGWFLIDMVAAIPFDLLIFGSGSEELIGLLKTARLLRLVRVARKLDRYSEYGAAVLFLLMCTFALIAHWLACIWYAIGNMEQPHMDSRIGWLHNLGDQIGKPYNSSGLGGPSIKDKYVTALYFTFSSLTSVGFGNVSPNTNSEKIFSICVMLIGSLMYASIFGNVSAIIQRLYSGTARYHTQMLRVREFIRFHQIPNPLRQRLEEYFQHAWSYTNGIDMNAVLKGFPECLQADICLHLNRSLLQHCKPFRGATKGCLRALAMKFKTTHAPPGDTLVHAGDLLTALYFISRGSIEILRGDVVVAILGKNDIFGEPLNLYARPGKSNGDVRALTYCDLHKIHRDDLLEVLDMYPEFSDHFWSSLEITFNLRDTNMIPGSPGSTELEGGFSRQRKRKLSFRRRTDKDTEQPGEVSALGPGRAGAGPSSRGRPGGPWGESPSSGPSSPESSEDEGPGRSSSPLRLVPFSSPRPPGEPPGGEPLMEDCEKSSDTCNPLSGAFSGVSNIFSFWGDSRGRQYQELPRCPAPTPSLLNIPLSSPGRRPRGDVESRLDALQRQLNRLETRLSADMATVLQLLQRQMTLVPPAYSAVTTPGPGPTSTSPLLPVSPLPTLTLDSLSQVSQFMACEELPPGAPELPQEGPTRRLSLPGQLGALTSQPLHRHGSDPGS

| Compound | hERG current change (%, negative = inhibition) at 1uM |
| --- | --- |
| COc1cc2c(cc1OC)C1=C(C#N)CCC(=NC(=O)c3ccc(Cl)cc3)N1CC2 | 10.4% |
| Cc1cc(OC(F)F)ccc1NC(=O)Nc1ccc2c(c1)OCO2 | 7.92% |
| CCCCc1nc(NCCNC(=O)c2ccco2)c(C#N)c2c1CSC(C)(C)C2 | 8.24% |
| O=C(O)c1ccc(CNC(=S)Nc2ccccc2)cc1 | 17.2% |
| Cc1oc(C(=O)O)cc1COc1cccc2ccccc12 | 17.7% |
| CCN(CC)S(=O)(=O)c1ccc(NC(=O)Cc2cccs2)cc1 | 16.2% |
| Cc1ccc2[nH]c(=O)c(CNC(C)(C)C)cc2c1 | -2.84% |
| COc1ccc(N(CC(=O)Nc2cccc(C)c2)S(=O)(=O)c2c(C)n[nH]c2C)cc1 | 9.89% |
| CN(C)CCCNc1oc(-c2cccc(Cl)c2)nc1C#N | -1.51% |
| CCN(CC(=O)Nc1cccc(F)c1)Cc1nc2ccccc2c(=O)[nH]1 | -5.69% |
| CCC(CC)c1nc(C(N)=O)c2[nH]c(=O)n(-c3ccc(OC)c(OC)c3)c2n1 | 5.43% |
| O=C(OCc1nnc(-c2ccc([N+](=O)[O-])cc2)o1)C1CC(=O)N(CCc2ccccc2)C1 (centres unmarked) | -17.8% |
| CCc1noc(C)c1C(=O)Nc1ccc(S(=O)(=O)N2CCC(C)CC2)cc1 | 6.53% |
| Cc1cc(C)n(-c2nc(SCC(=O)Nc3nccs3)c3c4c(sc3n2)COC(C)(C)C4)n1 | 4.81% |
| O=C(CSc1nnc(NC(=O)C2CC(=O)N(c3ccccc3)C2)s1)NCc1ccco1 (centres unmarked) | 12% |
| CCOc1ccc(-n2cc(C(=O)N3CCN(C)CC3)c3cc(OC)c(OC)cc3c2=O)cc1 | 11.6% |
| CC(C)CCN1CC(C(=O)NCCC2=CCCCC2)CC1=O (centres unmarked) | 1.53% |
| Cc1ccc(-c2nnc(N3CCN(C(=O)Cn4c(=O)n(C)c5ccccc54)CC3)c3ccccc23)cc1 | -7.71% |
| Cc1sc2ncn(CC(=O)NCCCC(=O)N3CCN(c4ccccn4)CC3)c(=O)c2c1C | 6.08% |
| CCCCN1C(=O)c2ccc(C(=O)NC3(C)CCS(=O)(=O)C3)cc2C1=O (centres unmarked) | 2.04% |
| COc1ccc(C(=O)N2CCN(Cc3ccccc3C(F)(F)F)CC2)cc1.O=C(O)C(=O)O | 8.32% |
| CCOC(=O)N1CCN(C(=O)Nc2ccc3nccnc3c2)CC1 | 8.48% |
| CCC(=O)c1ccc(OCC(=O)Nc2nn3cnnc3s2)cc1 | 15.4% |

| Compound | hERG current change (%, negative = inhibition) at 1uM |
| --- | --- |
| COc1ccc(Br)cc1S(=O)(=O)n1nc(C)cc1C | 2.12% |
| COc1cc(C(=O)N[C@@H](C)C(=O)N2CCC3(CC2)NCCc2[nH]cnc23)cc(OC)c1OC | 15.3% |
| COc1cc(/C=C/C(=O)OCC(=O)N2CCCc3ccccc32)ccc1OCC#N | 14.6% |
| NC(=O)CC(NC(=O)Cc1ccc(Br)cc1)c1ccc(N2CCN(c3ccccc3)CC2)c([N+](=O)[O-])c1 (centres unmarked) | 4.29% |
| CCOC(=O)c1csc(NC(=O)CSc2nnnn2-c2ccc(OC)cc2)n1 | 8.86% |
| COC(=O)N/N=C/c1ccc([N+](=O)[O-])o1 | -1.05% |
| CCn1ncc(N(C)N)c(Cl)c1=O | 17.8% |
| COc1ccc(OC)c(C2C(C(C)=O)=C(O)C(=O)N2CCC(=O)O)c1 (centres unmarked) | 3.75% |
| Cc1ccc(SCC(=O)NCCSC(C)(C)C)cc1 | 9.33% |
| Cc1nc2ccc([N+](=O)[O-])cc2c(=O)n1Cc1ccc(Br)cc1 | 14.8% |
| CC1CCCN(C(=O)CSc2nnc(-c3c[nH]c4ccccc34)o2)C1 (centres unmarked) | 16.3% |
| CCN1C(=O)/C(=C/c2cc(C)n(C)c2C)SC1=Nc1ccc(OC)cc1 | 13.4% |
| CC1CCCN(CCCNC(=O)C2CCC(CNS(=O)(=O)c3cccc4nsnc34)CC2)C1 (centres unmarked) | -9.46% |
| CCC(C)(C)n1nnnc1C(c1cc2cc(C)cc(C)c2[nH]c1=O)N1CCN(C(=O)c2ccco2)CC1 (centres unmarked) | 13.5% |
| c1ccc(CCCOCCC2CO2)cc1 (centres unmarked) | 10.4% |
| CC(=O)Nc1cc2ccc(OC(C)=O)cc2oc1=O | 12.7% |
| COc1ccc(-c2cc(=O)[nH]c(N3CCN(Cc4ccccc4)CC3)n2)cc1 | 13% |
| Cc1ccc(-c2noc(CCC(=O)Nc3ccc4c(c3)OCO4)n2)cc1 | 10.6% |
| Cc1ccc(SCCNS(=O)(=O)c2ccc(F)cc2)cc1 | 15.6% |
| Cc1cccc(N/C(N)=N/c2nc(CSc3ccc(Cl)cc3)cc(=O)[nH]2)c1 | 10.7% |
| CCN(CC)CCOc1ccccc1OC.O=C(O)C(=O)O | 7.13% |
| CC(=O)N(C)c1ccc(NC(=S)Nc2cccc3ccccc23)cc1 | 11.4% |
| O=C(COC(=O)c1ccc2c(c1)C(=O)N(Cc1ccncc1)C2=O)Nc1cccc2ccccc12 | 6.71% |

| Compound | hERG current change (%, negative = inhibition) at 1uM |
| --- | --- |
| CCN(CC)CCN1C(=O)C(=O)/C(=C(/O)c2ccc(S(=O)(=O)N3CCOCC3)cc2)C1c1ccc(Cl)cc1 (centres unmarked) | 13.9% |
| CCc1nc2ccc(Cc3ccc4nc(CC)[nH]c4c3)cc2[nH]1 | 17.7% |
| COc1cccc(C(=O)Nc2nnc(S(=O)(=O)N3CCOCC3)s2)c1 | -2.84% |
| CC(C)NCC(O)COc1c(F)cc(Br)cc1F.Cl (centres unmarked) | 4.26% |
| Cc1ccc(Cn2c(SCC(=O)Nc3cc(C)on3)nc3ccccc3c2=O)cc1 | 10.7% |
| Cc1cc(C)cc(N2C(=O)C3CCCN3C2=S)c1 (centres unmarked) | 17.7% |
| Cc1ccc(-c2nc(-c3cccnc3)no2)cc1 | 2.83% |
| CCCC(=O)Nc1ccc(Cl)c(NC(=O)c2cccnc2)c1 | 18.3% |
| CCc1ccc(OCC(=O)NCCOc2ccccc2)cc1 | 3% |
| Cc1cc(SCC(=O)NC(=O)NCc2ccco2)nc2c(C)cccc12 | -1.05% |
| Cc1cc(C(=O)N2CCCC2C(=O)O)c(C)o1 (centres unmarked) | 5.23% |
| COc1cc(C2SCC(=O)N2c2nnc(C34CC5CC(CC(C5)C3)C4)s2)cc(OC)c1OC (centres unmarked) | 2.93% |
| Cn1c(=O)c2c(ncn2CC(=O)NC2CCCCC2)n(C)c1=O | 8.25% |
| CC(C)(C)c1ccc(Oc2ccc(NC(=O)c3ccco3)cn2)cc1 | 5.19% |
| CC(=O)Nc1ccccc1NS(=O)(=O)c1ccccc1[N+](=O)[O-] | 8.77% |
| Cc1cc(C)c(S(=O)(=O)NC2CC(C)(C)NC(C)(C)C2)cc1C | 2.32% |
| Cc1cc(C(=O)NCCc2ccc(S(N)(=O)=O)cc2)no1 | 14.7% |
| Cc1ccc(-c2csc(NC(=O)Cc3cccs3)n2)cc1C | 9.09% |
| Cc1cccc(Nc2nc(-c3ccccn3)cs2)n1 | 18% |
| Cc1ccc(-c2csc(NC(=O)/C=C/c3ccco3)c2C(=O)O)cc1 | 15.7% |
| CC(C)(C)n1nnnc1C(c1cccc(C#N)c1)N1CCCc2ccccc21 (centres unmarked) | 11.9% |
| Clc1ccc(C2NCCc3[nH]cnc32)cc1 (centres unmarked) | 13.6% |
| COc1ccc(NC(=O)CC(C)C)c([N+](=O)[O-])c1 | 1.74% |

| Compound | hERG current change (%, negative = inhibition) at 1uM |
| --- | --- |
| Cc1ccc(-c2nnn(CC(=O)N(c3cccc(F)c3)C(C(=O)NC3CCCC3)c3ccncc3)n2)o1 (centres unmarked) | 15.5% |
| CCCNC(=O)N[C@@H](CCSC)C(=O)OC | 11.3% |
| O=C(Nc1ccc(Oc2ccc(NC(=O)Nc3ccccc3Cl)cc2)cc1)Nc1ccccc1Cl | 14.8% |
| COC(=O)C1=C(c2ccc(F)cc2OCc2ccccc2)C[C@@H]2CC[C@H]1N2C(=O)NCc1ccc(F)cc1 | 13.2% |
| COc1cc(OC)nc(Oc2ccccc2/C=N/O)n1 | 12% |
| O=C(Nc1ccncc1)OCc1ccccc1 | 16.9% |
| CCOC(=O)CC(=O)CSc1nc(C)cc(C)c1C#N | 6.43% |
| CSc1ccc(/C=N/n2c(Cc3ccc(Br)cc3)n[nH]c2=S)cc1 | -2.74% |
| CCOc1ccccc1CNCCO.Cl | 18.7% |
| CC(C(=O)N1CCc2ccccc21)N1CCN(c2cccc(C(F)(F)F)c2)CC1 (centres unmarked) | -1.93% |
| COC(=O)c1cc2ccsc2n1CC(=O)Nc1ccc(N(C)C)cc1 | 5.25% |
| COc1ccc(NC(=O)OC(CN2CCCCC2)C(F)(F)F)cc1 (centres unmarked) | 9.93% |
| CCN(CC)S(=O)(=O)c1ccc(OC)c(NC(=S)Nc2ccc(C)c(C)c2)c1 | 14.5% |
| CC(C)(O)C#Cc1ccc(C(=O)NC2CCCCC2)s1 | 8.66% |
| CCc1ccc(C(=O)OCC(=O)N2CCCCCC2)cc1 | 11.4% |
| CC1Oc2ccccc2N(Cc2ccc(F)cc2)C1=O (centres unmarked) | 4.62% |
| O=C(NCc1nc2ccccc2[nH]1)c1cc2ccccc2oc1=O | 13.1% |
| NS(=O)(=O)c1cc(C(=O)OCC(=O)NNC(=O)c2ccccc2)ccc1Cl | 11.7% |
| CC(=O)c1ccc(-n2nnnc2SCC(=O)NNC(=O)c2ccco2)cc1 | 16.6% |
| COc1ccc(C2(c3ccc(OC)cc3)NC(=O)N(CC(=O)Nc3ccccc3C)C2=O)cc1 | 3.86% |

Source: PMC4336329 (PLoS ONE, 2015)
